From PubChem BioAssay AID1240 (Sanford-Burnham Center for Chemical Genomics, 2008)
The whole screen tested about 50,000 compounds, of which about 800 (1.6%) showed an effect of 50% or more. Some of the results follow.

Molecular target: Bcl-2-like protein 10 (Homo sapiens) (UniProt Q9HD36)
Experiment: TR3 peptide-Bcl-B binding displacers, biochemical primary FP assay, phenotype converters (AID 1240);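 also: 0% = Bcl-B with tracer peptide and DMSO and 100% = tracer peptide lacking Bcl-B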
Conditions: GST-Bcl-B / FITC-TR3 peptide fluorescence polarization; stronger effect = higher value; compound at 3.75 mg/L

UniProt Q9HD36, sequence (Q9HD36 whole entry, looked up): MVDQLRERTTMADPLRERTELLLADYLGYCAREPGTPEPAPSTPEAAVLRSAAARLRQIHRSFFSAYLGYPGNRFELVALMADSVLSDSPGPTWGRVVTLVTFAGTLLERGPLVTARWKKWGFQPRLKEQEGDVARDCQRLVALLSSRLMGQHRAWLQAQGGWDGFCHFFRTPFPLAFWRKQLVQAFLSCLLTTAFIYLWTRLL

Row | Compound | displacement
1 | Cc1cccc(OC(=O)Nc2ccc(Cl)cc2)c1 | 3.5%
2 | CC(C)N(CCC#N)S(=O)(=O)c1ccc(-c2ccc([N+](=O)[O-])cc2)cc1 | 3.9%
3 | CCOC(=O)C1=C(C)OC(N)=C(C#N)C1c1ccc(OC)cc1 (stereo not given) | -10.8%
4 | COCCOC(=O)C1=C(C)N(C)C(=O)NC1c1ccccc1Cl (stereo not given) | -4.9%
5 | CCOc1ccc(C(CC(=O)c2ccccc2)Nc2ccc(Cl)cc2)cc1 (stereo not given) | 10.1%
6 | Cc1ccc(S(=O)(=O)Nc2c(C)n(C)n(-c3ccccc3)c2=O)c(C)c1 | -4.7%
7 | CCCCCCOC(=O)C1=C(C)NC(=O)NC1c1ccc(F)cc1 (stereo not given) | -1.4%
8 | COc1c(Br)cc(Br)cc1/C=N/NC(=O)CNC(=O)c1cccc(F)c1 | 1.8%
9 | O=C(Nc1sc2c(c1C(=O)Nc1ccccn1)CCCCC2)c1ccccc1 | 95%
10 | Cc1ccc(/C=C2/C=C(c3ccccc3)OC2=O)o1 | 22.9%
11 | O=[N+]([O-])c1ccc(-c2nc3ccc(Br)cn3[n+]2[O-])cc1 | 9.3%
12 | CCOC(=O)c1ccc(NC(=O)CN(CCc2ccccc2)S(=O)(=O)c2ccc(OC)cc2)cc1 | -23.7%
13 | O=C1NC(=O)/C(=C\c2ccc(-c3ccc(C(=O)O)cc3)o2)S1 | 22.4%
14 | CCOc1ccc(C(NC(=O)c2ccco2)c2ccc(OC)c(OC)c2)cc1 (stereo not given) | 7.2%
15 | O=C(Nc1ccccc1Br)NS(=O)(=O)c1ccccc1Cl | 2.3%
16 | O=C(Nc1ccccc1C(=O)O)c1ccc2c(c1)C(=O)N(c1ccccc1-c1ccccc1)C2=O | 5.3%
17 | Cc1cccc(C)c1NC(=O)CO/N=C(\N)c1nonc1N | 12.6%
18 | O=C(Nc1ccccc1C(=O)NCCc1ccccc1)c1cccnc1 | -16.8%
19 | CCOC(=O)c1c(C)oc2cc(Br)c(OC)cc12 | 12.6%
20 | COc1ccc(CNC(=O)COc2ccc(Cl)cc2Br)cc1 | 16.8%
21 | O=C(Nc1ccc(C(=O)N2CCOCC2)cc1)Nc1cccc(Cl)c1 | 16.1%
22 | CCc1c(C)sc(NC(=O)c2cccs2)c1C(=O)OC | 3.3%
23 | O=C(Nc1ccc(N2CCOCC2)cc1)C1(S(=O)(=O)c2ccccc2)CC1 | 11.7%
24 | O=[N+]([O-])c1ccccc1S(=O)(=O)Nc1cccc(I)c1 | 26%

Row | Compound | displacement
25 | O=C1Nc2ccc([N+](=O)[O-])cc2C1=Nc1ccc(-c2ccc(N=C3C(=O)Nc4ccc([N+](=O)[O-])cc43)cc2)cc1 | 3.3%
26 | CCN(CC)CCOc1c(Cl)cccc1Cl | 8.4%
27 | O=C1CC(c2ccccc2)CC2=C1C(c1ccc(F)c(Br)c1)Nc1ccccc1N2 (stereo not given) | 2.8%
28 | CC(C)(C)c1ccc(/C=C2\SC(N3CCOCC3)=NC2=O)cc1 | -19.4%
29 | O=C(Nc1nc2ccc3ccccc3c2s1)c1ccc(Cl)cc1Cl | -14.6%
30 | COc1ccc(-c2csc(Nc3ccc4c(c3)OCO4)n2)cc1F | 9.4%
31 | N/C(Cc1ccc(Cl)cc1)=N\OC(=O)Cc1ccc([N+](=O)[O-])cc1 | -25.5%
32 | O=C1NC(c2ccccc2)Nc2c1sc(=S)n2-c1ccccc1 (stereo not given) | 12.7%
33 | CCOC(=O)CSc1nccc(N(C)C)c1C#N | -5.8%
34 | CC(C)(C)C1CCc2c(sc(NC(=O)c3ccccc3)c2C(N)=O)C1 (stereo not given) | 37%
35 | COc1ccc(-c2cn3ccc4ccccc4c3n2)cc1OC | 0%
36 | O=C1OC(c2ccc(Br)cc2)=C/C1=C\C=C\c1ccccc1 | -8.3%
37 | c1ccc(C(Sc2nc3ccccc3[nH]2)c2ccccc2)cc1 | -9.9%
38 | COc1cc(C=O)c(Br)cc1OCc1ccccc1Cl | -5.8%
39 | O=S(=O)(Cc1ccccc1)NCCOc1ccccc1Cl | 11.5%
40 | COc1ccc(C(=O)c2ccccc2)c(OC)c1 | 11.9%
41 | O=C(Nc1nccs1)c1ccc2c(c1)C(=O)N(c1ccc(Cl)cc1)C2=O | 5.1%
42 | O=C(COc1ccc(Br)cc1)Nc1ccc(Cc2ccncc2)cc1 | 13.8%
43 | CCC(Sc1nc2ccccc2[nH]1)C(=O)Nc1cccc2ccccc12 (stereo not given) | 2.1%
44 | CCNC(=S)Nc1sc2c(c1C(=O)OCC)CCC2 | -10.6%
45 | COc1ccc(OC)c(/C=N/n2cnnc2)c1 | 11.1%
46 | Cc1cc2nc(-c3cc(NC(=O)/C=C/c4ccccc4)ccc3O)oc2cc1C | 21.9%
47 | O=C(NCCc1ccccc1)C1C(c2ccccc2)=C1c1ccccc1 | -7.7%
48 | O=C(c1ccccc1[N+](=O)[O-])N(Cc1ccccc1)Cc1ccccc1 | 0.6%

Row | Compound | displacement
49 | COc1ccc(/C=N/N(C)C2=NS(=O)(=O)c3cc([N+](=O)[O-])ccc32)cc1Br | -17.4%
50 | CCN(CC)c1ccc(C=Nn2cnnc2)cc1 | -8.4%
51 | CCOP(=O)(OCC)C(Nc1ccccc1)c1cccc([N+](=O)[O-])c1 (stereo not given) | 4.4%
52 | Cc1ccccc1C(=O)Nc1sc2c(c1C(=O)O)CCC2 | -4.2%
53 | Cc1cc(Br)c2[nH]c(O)c(N=Nc3cccc4cccnc34)c2c1 | 42.5%
54 | CS(=O)(=O)N(CC(=O)Nc1ccccc1Cl)c1ccc(Oc2ccccc2)cc1 | -4.3%
55 | O=C(CN1C(=O)/C(=C\c2ccccc2F)SC1=S)Nc1ccc(C(=O)O)cc1 | -3.8%
56 | CCOC(=O)C1=C(C)N=c2s/c(=C\c3cccs3)c(=O)n2C1c1ccc(F)cc1 (stereo not given) | 10.2%
57 | COC(=O)C1CC(OCc2ccccc2)C1 (stereo not given) | 13.9%
58 | O=C(O)c1cc(NC(=O)c2ccccc2Cl)cc(C(=O)O)c1 | -10.9%
59 | COc1cccc(C(=O)N2N=C(c3cccc(Br)c3)CC2(O)C(F)(F)F)c1 (stereo not given) | 4%
60 | O=C(NC(=S)Nc1ccc([N+](=O)[O-])cc1O)c1ccccc1 | 3.9%
61 | COc1ccc2ccccc2c1C1NC(=S)NC(C)=C1C(=O)Nc1cc(Cl)ccc1C (stereo not given) | 10.4%
62 | O=C(CN1CCCC1)N1CCN(C(=O)c2ccccc2)C1 | -4.6%
63 | Cc1ccc(C(=O)NC(NC(=S)Nc2cc(C)ccc2C)C(Cl)(Cl)Cl)cc1 (stereo not given) | 11.4%
64 | COc1cc(CN2CCN(Cc3ccccn3)CC2)cc(OC)c1O | 0%
65 | CCOc1ccc(C(NC(C)=O)c2ccc(OC)c(OC)c2)cc1 (stereo not given) | -1.3%
66 | COc1ccc(/C=c2\oc3cccc4c(OC)ccc(c2=O)c34)cc1OC | -6.1%
67 | CCOC(=O)C1=C(C)N=c2s/c(=C\c3ccc(C)cc3)c(=O)n2C1c1cccc([N+](=O)[O-])c1 (stereo not given) | 127%
68 | CCCC(=O)Nc1cccc(-c2nc3ccccc3s2)c1C | 3.4%
69 | COc1ccccc1N1CCN(/N=C\c2cccs2)CC1 | 2.5%
70 | O=C(COc1ccc(Cl)cc1)Nc1ccc(-c2nc3ccccc3o2)c(O)c1 | 11%
